{
  "source": "the supplement of paper PMC12217912",
  "parents": {"B1": {"name": "TEV protease; numbered along this chain (parent)", "chain": "MGESLFKGPRDYNPISSSICHLTNESDGHTTSLYGIGFGPFIITNKHLFRRNNGTLVVQSLHGVFKVKDTTTLQQHLVDGRDMIIIRMPKDFPPFPQKLKFREPQREERICLVTTNFQTKSMSSMVSDTSCTFPSGDGIFWKHWIQTKDGQCGSPLVSTRDGFIVGIHSASNFTNTNNYFTSVPKNFMELLTNQEAQQWVSGWRLNADSVLWGGHKVFMVKPEEPFQPVKEATQL"}},
  "note": "The other results are listed elsewhere or left out. Sequences were assembled here from the parent chain. Inactive controls read about 0.05.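 Further: Bxb1 expression induced with 0.2% (w/v) L-rhamnose at OD600 near 0.5, cultures sampled hourly, flipped fraction per protease–substrate barcode pair counted by paired-end Illumina sequencing.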",
  "data": [
    {"variants_of": "B1", "assay": "raw area under fraction-flipped curve 0-4 h after induction (AUC4h, not background-subtracted), DNA-recorder readout of cleavage of the substrate (dimensionless); higher = more cleavage of the substrate by the protease variant", "conditions": "temperature: 34 °C; time window: 0-4 h after rhamnose induction", "values": [
      {"variant": "MGESLFKGPRDYNPISSSICHLTNESDGHTTSLYGIGFGPFIITNKHLFRRNNGTLVVQSLHGVFKVKDTTTLQQHLVDGRDMIIIRMPKDFPPFPQKLKFREPQREERICLVTTNFQTKSMSSMVSDTSCTFPSGDGIFWKHWIQTKDGQCGSPLVSTRDGFIVGIHSASNFTNTNNYFTSVPKNFMELLTNQEAQQWVSGWRLNADSVLWGGHKVFMVKPEEPFQPVKEYTQL", "note": "[A232Y]", "area with substrate ENLYEQS": 0.0579, "area with substrate ENLYGQS": 0.0552, "area with substrate ENLYHQS": 0.0856, "area with substrate ENLYIQS": 0.15, "area with substrate ENLYNQS": 0.0723, "area with substrate ENLYPQS": 0.0771, "area with substrate ENLYQQS": 0.07, "area with substrate ENLYRQS": 0.0525, "area with substrate ENLYTQS": 0.0777, "area with substrate ENLYWQS": 0.0581},
      {"variant": "MGESLFKGPRDYNPISSSICHLTNESDGHTTSLYGIGFGPFIITNKHLFRRNNGTLVVQSLHGVFKVKDTTTLQQHLVDGRDMIIIRMPKDFPPFPQKLKFREPQREERICLVTTNFQTKSMSSMVSDTSCTFPSGDGIFWKHWIQTKDGQCGSPLVSTRDGFIVGIHSASNFTNTNNYFTSVPKNFMELLTSQEAQQWVSGWRLNADSVLWGGHKVFMVKPEEPFQPVKEATQL", "note": "[N193S]", "area with substrate ENLYGQS": 0.0644, "area with substrate ENLYIQS": 0.112, "area with substrate ENLYLQS": 0.0831, "area with substrate ENLYRQS": 0.0563, "area with substrate ENLYSQS": 0.0683},
      {"variant": "MGESLFKGPRDYNPISSSICHLTNESDGHTTSLYKIGFGPFIITNKHLFRRNNGTLVVQSLHGVFKVKDTTTLQQHLVDGRDMIIIRMPKDFPPFPQKLKFREPQREERICLVTTNFQTKSMSSMVSDTSCTFPSGDGIFWKHWIQTKDGQCGSPLVSTRDGFIVGIHSASNFTNTNNYFTSVPKNFMELLTNQEAQQWVSGWRLNADSVLWGGHKVFMVKPEEPFQPVKEATQL", "note": "[G35K]", "area with substrate ENLYEQS": 0.0437, "area with substrate ENLYKQS": 0.0472, "area with substrate ENLYQQS": 0.0651, "area with substrate ENLYWQS": 0.0466},
      {"variant": "MGESLFKGPRDYNPISSSICHLTNESDGHTTSLYGIGFGPFIITNKHLFRRNNGTLVVQSLHGVFKVKDTTTLQQHLVDGRDMIIIRMPKDFPPFPQKLKFREPQREERICLVTTNFQTKSMSSMVSDTSCTFPSGDGIFWKHWIQTKDGQCGSPLVSTRDGFIVGIHSASNFTNTNNYFTSVPKNFMELLTNQEAYQWVSGWRLNADSVLWGGHKVFMVKPEEPFQPVKEATQL", "note": "[Q197Y]", "area with substrate ENLYGQS": 0.0618, "area with substrate ENLYHQS": 0.0662, "area with substrate ENLYKQS": 0.0712, "area with substrate ENLYNQS": 0.0517, "area with substrate ENLYSQS": 0.0687},
      {"variant": "MGESLFKGPRDYNPISSSICHLTNESDGHTTSLYGIGFGPFIITNKHLFRRNNGTLVVQSLHGVFKVKDTTTLQQHLVDGRDMIIIRMPKDFPPFPQKLKFREPQREERICLVTTNFQTKSMSSMVSDTSCTFPSGDGIFWKHWIQTKDGQCGSPLVSTRDGFIVGIHSASNFTNTNNYFTSVPKNFMELLTNQEAQQWVSGWRLNADSVLWGGHKVRMVKPEEPFQPVKEATQL", "note": "[F218R]", "area with substrate ENLYEQS": 0.0701, "area with substrate ENLYGQS": 0.0716, "area with substrate ENLYHQS": 0.0672, "area with substrate ENLYIQS": 0.0885, "area with substrate ENLYKQS": 0.0643, "area with substrate ENLYVQS": 0.0704},
      {"variant": "MGESLFKGPRDYNPISSSICHLTNESDGHTTSLYGIGFGPFIITNKHLFRRNNGTLVVQSLHGVFKVKDTTTLQQHLVDGRDMIIIRMPKDFPPFPQKLKFREPQREERICLVTTNFQTKTMSSMVSDTSCTFPSGDGIFWKHWIQTKDGQCGSPLVSTRDGFIVGIHSASNFTNTNNYFTSVPKNFMELLTNQEAQQWVSGWRLNADSVLWGGHKVFMVKPEEPFQPVKEATQL", "note": "[S121T]", "area with substrate ENLYGQS": 0.058, "area with substrate ENLYHQS": 0.095, "area with substrate ENLYKQS": 0.0579, "area with substrate ENLYMQS": 0.0921, "area with substrate ENLYNQS": 0.0756, "area with substrate ENLYYQS": 0.0691},
      {"variant": "MGESLFKGPRDYNPISSSICHLTNESDGHTTSLYGIGFGPFIITNKHLFRRNNGTLVVQSLHGMFKVKDTTTLQQHLVDGRDMIIIRMPKDFPPFPQKLKFREPQREERICLVTTNFQTKSMSSMVSDTSCTFPSGDGIFWKHWIQTKDGQCGSPLVSTRDGFIVGIHSASNFTNTNNYFTSVPKNFMELLTNQEAQQWVSGWRLNADSVLWGGHKVFMVKPEEPFQPVKEATQL", "note": "[V64M]", "area with substrate ENLYEQS": 0.0519, "area with substrate ENLYGQS": 0.0631, "area with substrate ENLYHQS": 0.0673, "area with substrate ENLYIQS": 0.118, "area with substrate ENLYKQS": 0.0881, "area with substrate ENLYLQS": 0.0049, "area with substrate ENLYMQS": 0.104, "area with substrate ENLYNQS": 0.0709, "area with substrate ENLYPQS": 0.0699, "area with substrate ENLYQQS": 0.0589, "area with substrate ENLYRQS": 0.0659, "area with substrate ENLYSQS": 0.0702, "area with substrate ENLYTQS": 0.0812, "area with substrate ENLYVQS": 0.088, "area with substrate ENLYWQS": 0.0952},
      {"variant": "MGESLFKGPRDYNPISSSICHLTNESDGHTTSLYGIGFGPFIITNKHLFRRNNGTLVVQSLHGVFKVKDTTTLQQHLVDGRDMIIIRMPKDFPPFPQKLKFREPQREERICLVTTNFQTKSMSSMVSDTSCTFPSGDGIFWKHWIQTKDGQCGSPLVSTRDGFIVGIHSASNFTNTNNYFTSVPKNFMELLTNQEAQQWVSGWRLNADSVLWGGHKVFMVKPEEPDQPVKEATQL", "note": "[F226D]", "area with substrate ENLYEQS": 0.0684, "area with substrate ENLYGQS": 0.067, "area with substrate ENLYKQS": 0.0414, "area with substrate ENLYMQS": 0.0899, "area with substrate ENLYNQS": 0.0667, "area with substrate ENLYPQS": 0.0642, "area with substrate ENLYRQS": 0.0627, "area with substrate ENLYVQS": 0.11},
      {"variant": "MGESLFKGPRDYNPISSSICHLTNESDGHTTSLYGIGFGPFIITNKHLFRRNNGTLVVQSLHGVFKVKDTTTLQQHLVDGRDMIIIRMPKDFPPFPQKLKFREAQREERICLVTTNFQTKSMSSMVSDTSCTFPSGDGIFWKHWIQTKDGQCGSPLVSTRDGFIVGIHSASNFTNTNNYFTSVPKNFMELLTNQEAQQWVSGWRLNADSVLWGGHKVFMVKPEEPFQPVKEATQL", "note": "[P104A]", "area with substrate ENLYGQS": 0.0606, "area with substrate ENLYHQS": 0.0563, "area with substrate ENLYIQS": 0.119, "area with substrate ENLYNQS": 0.0645, "area with substrate ENLYPQS": 0.0673, "area with substrate ENLYQQS": 0.068, "area with substrate ENLYRQS": 0.0616, "area with substrate ENLYSQS": 0.0782, "area with substrate ENLYVQS": 0.113, "area with substrate ENLYWQS": 0.0863},
      {"variant": "MGESLFKGPRDYNPISSSICHLTNESDGHTTSLYGIGFGPFIITNKHLFRRNNGTLVVQSLHGVFKVKDTTTLQQHLVDGRDMIIIRMPKDFPPFPQKLKFREPQREERICLVTTNFQTKSMSSMVSDTSCTFPSGDGIFWKHWIQTKRGQCGSPLVSTRDGFIVGIHSASNFTNTNNYFTSVPKNFMELLTNQEAQQWVSGWRLNADSVLWGGHKVFMVKPEEPFQPVKEATQL", "note": "[D149R]", "area with substrate ENLYGQS": 0.0665, "area with substrate ENLYKQS": 0.0642, "area with substrate ENLYMQS": 0.0767, "area with substrate ENLYNQS": 0.0501}
    ]}
  ]
}
